Laboratory results from article PMC4336329 (PLoS ONE, 2015).
The whole screen tested about 310,000 compounds, of which about 14,000 (4.5%) showed an effect of 50% or more. The effect is printed as a negative number. Some of the results follow.

Biological target: human ether-à-go-go-related gene (hERG) potassium channel (human, UniProt Q12809)
Assay: primary screen, population patch clamp on CHO cells stably expressing hERG
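Note: peak tail current of the secondary pulse compared with the same well before compound.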

Chain of human ether-à-go-go-related gene (hERG) potassium channel (Q12809 whole entry, looked up): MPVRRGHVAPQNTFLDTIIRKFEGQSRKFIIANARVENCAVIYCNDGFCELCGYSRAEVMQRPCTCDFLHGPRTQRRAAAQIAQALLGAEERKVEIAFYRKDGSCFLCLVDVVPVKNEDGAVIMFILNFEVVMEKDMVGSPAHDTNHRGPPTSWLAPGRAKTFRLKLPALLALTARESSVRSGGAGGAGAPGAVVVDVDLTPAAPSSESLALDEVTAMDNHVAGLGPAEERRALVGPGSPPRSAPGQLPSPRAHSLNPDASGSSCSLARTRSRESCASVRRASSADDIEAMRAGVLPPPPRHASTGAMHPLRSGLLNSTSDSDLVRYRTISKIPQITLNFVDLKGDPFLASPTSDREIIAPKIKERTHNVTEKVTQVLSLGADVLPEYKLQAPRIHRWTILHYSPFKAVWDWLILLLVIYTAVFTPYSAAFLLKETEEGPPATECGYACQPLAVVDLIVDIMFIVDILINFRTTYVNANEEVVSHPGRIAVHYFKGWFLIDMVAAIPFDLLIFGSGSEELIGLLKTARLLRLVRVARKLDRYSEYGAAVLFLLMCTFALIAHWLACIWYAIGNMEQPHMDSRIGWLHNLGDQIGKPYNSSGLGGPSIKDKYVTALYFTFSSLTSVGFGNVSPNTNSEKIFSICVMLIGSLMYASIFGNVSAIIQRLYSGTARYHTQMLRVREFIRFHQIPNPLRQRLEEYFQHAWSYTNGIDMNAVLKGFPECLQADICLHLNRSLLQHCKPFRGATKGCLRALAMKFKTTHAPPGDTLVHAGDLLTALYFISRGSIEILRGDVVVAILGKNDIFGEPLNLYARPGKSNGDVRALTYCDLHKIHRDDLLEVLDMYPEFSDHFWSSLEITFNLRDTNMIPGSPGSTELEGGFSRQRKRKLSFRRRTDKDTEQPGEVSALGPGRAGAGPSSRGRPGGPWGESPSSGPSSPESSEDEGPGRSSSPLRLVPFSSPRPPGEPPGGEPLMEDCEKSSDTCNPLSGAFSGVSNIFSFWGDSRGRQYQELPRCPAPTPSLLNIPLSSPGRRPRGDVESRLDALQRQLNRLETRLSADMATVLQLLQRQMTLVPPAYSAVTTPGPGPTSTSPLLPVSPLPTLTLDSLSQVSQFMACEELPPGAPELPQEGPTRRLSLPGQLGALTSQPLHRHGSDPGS

SMILES | hERG current change (%, negative = inhibition) at 10uM [%]
Cc1nn(Cc2ccccc2)c(Cl)c1C(=O)O | 29
CSc1nnc(-c2cnccn2)n1Cc1ccccc1 | 11.9
O=C(OCc1ccccc1)/C(=C(\O)c1ccccc1Br)c1ccc(-c2ccccc2)cn1 | 3.75
COc1ccc(C=C2C(=O)c3ccccc3C2=O)cc1O | 6.27
COc1ccc(F)cc1S(=O)(=O)n1cc(C)nc1-c1ccccc1 | 2.69
NC(=O)C1CCCN(CC(=O)N2CCN(c3ccccc3)CC2)C1 (stereo not drawn) | 12.3
Cn1c(=O)oc2cc(S(=O)(=O)Nc3ccccc3O)ccc21 | 7.58
O=C(Cn1nnc(-c2ccc(S(=O)(=O)N3CCCC3)cc2)n1)NCC1CCCO1 (stereo not drawn) | 2.43
O=c1[nH]c(=O)n(Cc2ccco2)c(O)c1C=NCc1ccco1 | 3.46
CC1CC(C)(C)NC(=S)N1CC(=O)N1CCN(Cc2ccc3c(c2)OCO3)CC1 (stereo not drawn) | 12.2
Cc1ccccc1NS(=O)(=O)c1cc(C(N)=O)ccc1C | 0.667
COc1cccc(-c2nc(-c3ccc(C(=O)O)cc3)no2)c1 | -3.57
O=C(CSc1nc2ncccc2[nH]1)Nc1ccc2c(c1)OCO2 | 9.63
CC(C)(C)NC(=O)CN1CCN(C(=O)CCl)CC1.Cl | 8.35
CN(C(=O)CCN1C(=O)C2C3C=CC(C3)C2C1=O)c1ccccc1 (stereo not drawn) | 12.3
CN1CCN(c2ccccc2NC(=O)C(Cc2ccccc2)n2cccc2)CC1 (stereo not drawn) | -65.6
O=C(O)CCCn1cc(NC(=O)c2c(F)cccc2F)cn1 | 22.5
CC1Cc2ccccc2N1C(=O)COC(=O)C1(c2ccccc2F)CCCC1 (stereo not drawn) | -5.21
OCC1CCCN(Cc2ccc(-c3ccccc3)cc2)C1 (stereo not drawn) | -28.4
COc1cc(NC(=O)c2cc(C)nc3ccccc23)cc(OC)c1 | 20.8
COC(=O)COC(=O)c1ccc(O)cc1 | -13.7

SMILES | hERG current change (%, negative = inhibition) at 10uM [%]
CCOC(=O)C1=C(CSc2nc(-c3ccncc3)ccc2C#N)OC(N)=C(C#N)C1c1ccc(OC)cc1 (stereo not drawn) | 2.11
CCSc1ccc([C@@H]2[C@@H]3C(=O)N(CC)C(=O)[C@@H]3[C@]3(C(=O)OC)CCCCN23)cc1.O=C(O)C(F)(F)F | -4.27
Cc1cnn(-c2cc(N/N=C/c3ccccc3Cl)ncn2)c1 | 15.1
CC(C(=O)O)n1nnc2ccccc21 (stereo not drawn) | 9.12
COc1ccc(NC(=O)CSCc2cc(=O)n3ccsc3n2)cc1 | 22.7
CC(=O)c1c(-c2ccc(C)cc2)nc2c3ccccc3ccn12 | 10.2
COC(C(=O)Nc1ccc(S(=O)(=O)Nc2ccc(F)cc2)cc1)c1ccccc1 (stereo not drawn) | 0.504
CCN1CCc2c(sc(NC(=O)c3ccc(S(=O)(=O)N4CCCCCC4)cc3)c2C(=O)NC)C1 | -36.6
COc1cccc(-c2ccc3ncnc(NCc4cccc(C)c4)c3c2)c1 | -0.57
O=C(OCC(=O)N1CCOCC1)c1ccc[nH]c1=O | 10.6
O=C(Nc1ccc2c(c1)OCCO2)C1CCCN(c2ncccn2)C1 (stereo not drawn) | 3.43
O=C(c1ccc([N+](=O)[O-])s1)N1CCN(c2cccc(Cl)c2)CC1 | -66.1
Cc1ccc(C(CNS(=O)(=O)c2ccc([N+](=O)[O-])cc2)N2CCN(C)CC2)cc1 (stereo not drawn) | -66.8
O=[N+]([O-])c1ccc(N/N=C/c2c[nH]c3ccccc23)cc1 | 2.42
Cl.N#CC(c1ccccc1)C1CCN(Cc2ccccc2)CC1 (stereo not drawn) | -50.9
C/C=C/c1ccc(OCC(O)CN2CCCCCCC2)c(OC)c1 (stereo not drawn) | -35.4
CCC(C)NC(=O)C1c2cc(OC)c(OC)cc2C(=O)N(C)C1c1cccs1 (stereo not drawn) | 3.75
CCC1=NN2C(=N)/C(=C\c3ccc(OCCOc4ccc(NC(C)=O)cc4)c(OC)c3)C(=O)N=C2S1 | 24.3
C=CCNc1nc(Nc2ccc([N+](=O)[O-])cc2)nc(OCC)n1 | 14.1
CC(=O)c1cc(C(=O)N2CCc3c([nH]c4ccccc34)C2CC(C)C)[nH]n1 (stereo not drawn) | -19.8
COc1ccc(CSc2nncn2N)cc1[N+](=O)[O-] | 7.17
